Measurements: patent US20260034244A1 (PANOLOS BIOSCIENCE, published 2026)

T1: VEGF-A (UniProt P15692-4 27-191, limits assumed)
T1 construct: also called vascular endothelial growth factor A
T1 sequence (looked up): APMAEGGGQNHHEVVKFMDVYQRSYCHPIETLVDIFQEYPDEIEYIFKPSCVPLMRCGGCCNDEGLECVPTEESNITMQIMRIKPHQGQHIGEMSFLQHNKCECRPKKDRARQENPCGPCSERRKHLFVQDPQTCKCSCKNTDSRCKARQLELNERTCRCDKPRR

T2: PLGF (UniProt P49763-2 19-149, limits assumed)
T2 construct: also called placental growth factor
T2 sequence (looked up): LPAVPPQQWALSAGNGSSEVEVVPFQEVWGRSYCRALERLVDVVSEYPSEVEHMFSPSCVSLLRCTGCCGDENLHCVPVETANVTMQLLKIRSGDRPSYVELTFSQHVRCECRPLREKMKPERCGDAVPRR

T3: VEGF-A (UniProt P15692-4 27-191, limits assumed)
T3 construct: also called vascular endothelial growth factor A
T3 sequence (looked up): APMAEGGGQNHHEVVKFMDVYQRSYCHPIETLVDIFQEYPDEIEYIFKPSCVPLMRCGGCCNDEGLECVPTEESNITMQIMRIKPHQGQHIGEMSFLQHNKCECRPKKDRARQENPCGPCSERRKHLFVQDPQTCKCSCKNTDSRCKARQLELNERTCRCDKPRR

T4: PLGF (UniProt P49763-2 19-149, limits assumed)
T4 construct: also called placental growth factor
T4 sequence (looked up): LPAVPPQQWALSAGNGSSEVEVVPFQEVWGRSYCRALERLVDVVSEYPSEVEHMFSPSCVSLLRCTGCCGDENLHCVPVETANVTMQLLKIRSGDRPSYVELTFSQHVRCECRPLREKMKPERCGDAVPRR


Key:
VEGF-A [1] = target: VEGF-A (UniProt P15692); assay: cell-based or functional assay
VEGF-A [2] = target: T1, VEGF-A; assay: BLI (Octet, AHC sensor); fold increase vs VEGF-Grab3 (Samsung Biologics)
PLGF [3] = target: T2, PLGF; assay: as above
VEGF-A [4] = target: T1, VEGF-A; assay: BLI (Octet, AHC sensor); fold increase vs VEGF-Grab3 (Panolos Bioscience)
PLGF [5] = target: T2, PLGF; assay: as above
VEGF-A [6] = target: T3, VEGF-A; assay: BLI Octet RED96e, AHC capture
PLGF [7] = target: T4, PLGF; assay: BLI Octet RED96e, AHC capture
VEGF-A [8] = target: T3, VEGF-A; assay: BLI Octet; fold increase vs C88
PLGF [9] = target: T4, PLGF; assay: BLI Octet; fold increase vs C88

Binder	IC50 (µg/ml), luciferase reporter, KDR/NFAT-RE HEK293 cells (VEGF-A [1]) [µg/mL]	Fold (KD) (VEGF-A [2]) [fold]	Fold (kdis) (VEGF-A [2]) [fold]	Fold (kon) (VEGF-A [2]) [fold]	Fold (KD) (PLGF [3]) [fold]	Fold (kdis) (PLGF [3]) [fold]	Fold (kon) (PLGF [3]) [fold]	Fold (KD) (VEGF-A [4]) [fold]	Fold (kdis) (VEGF-A [4]) [fold]	Fold (kon) (VEGF-A [4]) [fold]	Fold (KD) (PLGF [5]) [fold]	Fold (kdis) (PLGF [5]) [fold]	Fold (kon) (PLGF [5]) [fold]	further results
C80 (Fc fusion, Based on VEGF-Grab3; L258A/K300G/Q302T/K304S/K306Q) EFGRPFVEMYSEIPEIIHMTEGRELVIPCRVTSPNITVTLKKFPLDTLIPDGKRIIWDSRKGFIISNATYKEIGLLTCEATVNGHLYKTNYLTHRQTNTIIDVQISTPSPVTLCRGHTLVLNCTATTPANTRVQMTWSYPDEKNKNASVRRRIDQSNSHANIFYSVLTIDGMTNSDQGLYTCRVRSGPSFKSVNTSVHIYDCSNTGSGGEEKKKEKEKEEQEERSSDTPP[gap - human IgG1 Fc]	0.0101	0.84	1	0.84	1.2	0.57	2.11	> 100	> 100	1.5	0.87	0.51	1.71	–
C86 (Fc fusion, Based on VEGF-Grab3; L258D/K300G/Q302T/K304S/K306Q) EFGRPFVEMYSEIPEIIHMTEGRELVIPCRVTSPNITVTLKKFPLDTLIPDGKRIIWDSRKGFIISNATYKEIGLLTCEATVNGHLYKTNYLTHRQTNTIIDVQISTPSPVTLCRGHTLVLNCTATTPDNTRVQMTWSYPDEKNKNASVRRRIDQSNSHANIFYSVLTIDGMTNSDQGLYTCRVRSGPSFKSVNTSVHIYDCSNTGSGGEEKKKEKEKEEQEERSSDTPP[gap - human IgG1 Fc]	0.0193	0.6	1	0.6	1.93	2.65	0.73	> 100	> 100	1.08	1.41	2.39	0.59	–
C81 (Fc fusion, Based on VEGF-Grab3; L258A/K300G/Q302T/K304S/K306Q) EFGRPFVEMYSEIPEIIHMTEGRELVIPCRVTSPNITVTLKKFPLDTLIPDGKRIIWDSRKGFIISNATYKEIGLLTCEATVNGHLYKTNYLTHRQTNTIIDVQISTPSPVTLCRGHTLVLNCTATTPANTRVQMTWSYPDEKNKNASVRRRIDQSNSHANIFYSVLTIDGMTNSDQGLYTCRVRSGPSFKSVNTSVHIYDCGSSGGSSGEPKS[gap - human IgG1 Fc and a few adjoining residues]	0.00268	< 0.01	0.01	0.8	12	9.41	1.27	1.12	0.77	1.44	8.77	8.51	1.03	–
C87 (Fc fusion, Based on VEGF-Grab3; L258D/K300G/Q302T/K304S/K306Q) EFGRPFVEMYSEIPEIIHMTEGRELVIPCRVTSPNITVTLKKFPLDTLIPDGKRIIWDSRKGFIISNATYKEIGLLTCEATVNGHLYKTNYLTHRQTNTIIDVQISTPSPVTLCRGHTLVLNCTATTPDNTRVQMTWSYPDEKNKNASVRRRIDQSNSHANIFYSVLTIDGMTNSDQGLYTCRVRSGPSFKSVNTSVHIYDCGSSGGSSGEPKS[gap - human IgG1 Fc and a few adjoining residues]	0.0181	0.52	1	0.52	0.88	0.5	1.76	> 100	> 100	0.93	0.64	0.45	1.42	–
C82 (Fc fusion, Based on VEGF-Grab3; L258D/K300G/Q302T/K304S/K306Q) EFGRPFVEMYSEIPEIIHMTEGRELVIPCRVTSPNITVTLKKFPLDTLIPDGKRIIWDSRKGFIISNATYKEIGLLTCEATVNGHLYKTNYLTHRQTNTIIDVQISTPSPVTLCRGHTLVLNCTATTPDNTRVQMTWSYPDEKNKNASVRRRIDQSNSHANIFYSVLTIDGMTNSDQGLYTCRVRSGPSFKSVNTSVHIYDCSSGDATPTS[gap - human IgG1 Fc with changes]	0.0217	0.01	0.01	0.78	1.25	0.82	1.52	1.53	1.09	1.4	0.91	0.74	1.23	–
C97 (Fc fusion, Based on C88; L243S/R244V; IgG1 Fc) EFGRPFVEMYSEIPEIIHMTEGRELVIPCRVTSPNITVTLKKFPLDTLIPDGKRIIWDSRKGFIISNATYKEIGLLTCEATVNGHLYKTNYLTHRQTNTIIDVQISTPRPVKLSVGHTLVLNCTATTPLNTRVQMTWSYPDEKNKRASVRRRIDQSNSHANIFYSVLTIDKMQNKDKGLYTCRVRSGPSFKSVNTSVHIYDLE[gap - human IgG1 Fc]	–	–	–	–	–	–	–	–	–	–	–	–	–	Kd (VEGF-A [6]): 0.006 nM; koff (VEGF-A [6]): 1.68e-06 s⁻¹; kon (VEGF-A [6]): 281000 M⁻¹ s⁻¹; Kd (PLGF [7]): 0.152 nM; koff (PLGF [7]): 0.000195 s⁻¹; kon (PLGF [7]): 1.28e+06 M⁻¹ s⁻¹; Fold (kdis) (VEGF-A [8]): 20.9 fold; Fold (kon) (VEGF-A [8]): 0.49 fold; Fold (KD) (PLGF [9]): 1.35 fold; Fold (kdis) (PLGF [9]): 1.28 fold; Fold (kon) (PLGF [9]): 1.06 fold
C99 (Fc fusion, Based on C88; L258A; IgG1 Fc) EFGRPFVEMYSEIPEIIHMTEGRELVIPCRVTSPNITVTLKKFPLDTLIPDGKRIIWDSRKGFIISNATYKEIGLLTCEATVNGHLYKTNYLTHRQTNTIIDVQISTPRPVKLLRGHTLVLNCTATTPANTRVQMTWSYPDEKNKRASVRRRIDQSNSHANIFYSVLTIDKMQNKDKGLYTCRVRSGPSFKSVNTSVHIYDLE[gap - human IgG1 Fc]	–	–	–	–	–	–	–	–	–	–	–	–	–	koff (VEGF-A [6]): < 1e-07 s⁻¹; kon (VEGF-A [6]): 261000 M⁻¹ s⁻¹; Kd (PLGF [7]): 0.376 nM; koff (PLGF [7]): 0.000511 s⁻¹; kon (PLGF [7]): 1.36e+06 M⁻¹ s⁻¹; Fold (KD) (VEGF-A [8]): > 60.9 fold; Fold (kdis) (VEGF-A [8]): > 100 fold; Fold (kon) (VEGF-A [8]): 0.45 fold; Fold (KD) (PLGF [9]): 0.54 fold; Fold (kdis) (PLGF [9]): 0.49 fold; Fold (kon) (PLGF [9]): 1.12 fold
C84 (Fc fusion, Based on VEGF-Grab3; L258D/K300G/Q302T/K304S/K306Q) EFGRPFVEMYSEIPEIIHMTEGRELVIPCRVTSPNITVTLKKFPLDTLIPDGKRIIWDSRKGFIISNATYKEIGLLTCEATVNGHLYKTNYLTHRQTNTIIDVQISTPSPVTLCRGHTLVLNCTATTPDNTRVQMTWSYPDEKNKNASVRRRIDQSNSHANIFYSVLTIDGMTNSDQGLYTCRVRSGPSFKSVNTSVHIYDCSGGGGSAEPKAGDATPPTCPP[gap - human IgG1 Fc]	0.00616	0.77	1	0.77	1.04	0.65	1.6	> 100	> 100	1.38	0.76	0.59	1.29	–
C79 (Fc fusion, Based on VEGF-Grab3; L258A/K300G/Q302T/K304S/K306Q) EFGRPFVEMYSEIPEIIHMTEGRELVIPCRVTSPNITVTLKKFPLDTLIPDGKRIIWDSRKGFIISNATYKEIGLLTCEATVNGHLYKTNYLTHRQTNTIIDVQISTPSPVTLCRGHTLVLNCTATTPANTRVQMTWSYPDEKNKNASVRRRIDQSNSHANIFYSVLTIDGMTNSDQGLYTCRVRSGPSFKSVNTSVHIYDCSGGGGSGGGGSGGGGSAESKYGPP[gap - human IgG1 Fc]	0.00881	0.77	1	0.77	1.13	0.66	1.72	> 100	> 100	1.38	0.82	0.59	1.39	–
C85 (Fc fusion, Based on VEGF-Grab3; L258D/K300G/Q302T/K304S/K306Q) EFGRPFVEMYSEIPEIIHMTEGRELVIPCRVTSPNITVTLKKFPLDTLIPDGKRIIWDSRKGFIISNATYKEIGLLTCEATVNGHLYKTNYLTHRQTNTIIDVQISTPSPVTLCRGHTLVLNCTATTPDNTRVQMTWSYPDEKNKNASVRRRIDQSNSHANIFYSVLTIDGMTNSDQGLYTCRVRSGPSFKSVNTSVHIYDCSGGGGSGGGGSGGGGSAESKYGPP[gap - human IgG1 Fc]	0.021	0.71	1	0.71	1.15	0.95	1.2	> 100	> 100	1.28	0.84	0.86	0.97	–
